In patent publication US20250263409A1, “FGFR2 INHIBITOR COMPOUNDS” (ELI LILLY AND COMPANY, priority 2022, published 2025):
Some entries share one result that the patent states for a list of compounds.

How the values were obtained:
human wild type FGFR2 = biological target: T1, human wild type FGFR2 (Homo sapiens, UniProt P21802); assay: FGFR2 cell-based assay (phospho-FGFR positive cells); details: dox-inducible HEK293 cells (NCI-H716 cells also described), 1 hour compound incubation
T1 construct: expressed in transfected cells; host or cells: HEK293

FGFR2 = biological target: T2, FGFR2 (Homo sapiens, UniProt P21802); assay: FGFR2 enzyme assay (KinEASE-TK HTRF); format: biochemical; details: at Km ATP; 15 min pre-incubation; 30 min at 30 °C
T2 construct: purchased ThermoFisher Scientific PR5332A

human wild type FGFR1 = biological target: T3, human wild type FGFR1 (Homo sapiens, UniProt P11362); assay: FGFR1 cell-based assay (phospho-FGFR positive cells); details: dox-inducible HEK293 cells; IC50 FGFR1 divided by IC50 FGFR2
T3 construct: expressed in transfected cells; host or cells: HEK293
T3 sequence (P11362 22-822): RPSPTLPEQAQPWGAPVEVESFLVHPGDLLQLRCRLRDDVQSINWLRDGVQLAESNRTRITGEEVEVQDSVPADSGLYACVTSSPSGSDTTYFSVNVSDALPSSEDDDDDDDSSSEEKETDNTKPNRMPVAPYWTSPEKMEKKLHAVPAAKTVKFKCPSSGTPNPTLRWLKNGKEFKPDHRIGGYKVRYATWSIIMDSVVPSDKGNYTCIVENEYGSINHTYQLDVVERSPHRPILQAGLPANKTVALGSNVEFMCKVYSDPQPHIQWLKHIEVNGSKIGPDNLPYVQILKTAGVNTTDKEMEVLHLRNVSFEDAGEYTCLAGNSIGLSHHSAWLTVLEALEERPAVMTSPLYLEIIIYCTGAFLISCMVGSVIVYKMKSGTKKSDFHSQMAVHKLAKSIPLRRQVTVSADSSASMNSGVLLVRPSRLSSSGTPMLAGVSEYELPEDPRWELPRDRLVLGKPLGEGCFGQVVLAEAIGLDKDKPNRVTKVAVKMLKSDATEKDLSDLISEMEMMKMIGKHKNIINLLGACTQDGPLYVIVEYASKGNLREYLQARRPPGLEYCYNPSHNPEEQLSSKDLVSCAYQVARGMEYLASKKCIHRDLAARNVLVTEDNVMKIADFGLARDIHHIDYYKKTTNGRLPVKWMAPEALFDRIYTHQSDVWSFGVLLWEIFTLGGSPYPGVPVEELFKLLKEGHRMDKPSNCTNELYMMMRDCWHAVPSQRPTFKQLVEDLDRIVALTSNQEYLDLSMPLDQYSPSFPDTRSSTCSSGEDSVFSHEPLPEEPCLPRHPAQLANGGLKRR

T2 sequence (P21802 22-821): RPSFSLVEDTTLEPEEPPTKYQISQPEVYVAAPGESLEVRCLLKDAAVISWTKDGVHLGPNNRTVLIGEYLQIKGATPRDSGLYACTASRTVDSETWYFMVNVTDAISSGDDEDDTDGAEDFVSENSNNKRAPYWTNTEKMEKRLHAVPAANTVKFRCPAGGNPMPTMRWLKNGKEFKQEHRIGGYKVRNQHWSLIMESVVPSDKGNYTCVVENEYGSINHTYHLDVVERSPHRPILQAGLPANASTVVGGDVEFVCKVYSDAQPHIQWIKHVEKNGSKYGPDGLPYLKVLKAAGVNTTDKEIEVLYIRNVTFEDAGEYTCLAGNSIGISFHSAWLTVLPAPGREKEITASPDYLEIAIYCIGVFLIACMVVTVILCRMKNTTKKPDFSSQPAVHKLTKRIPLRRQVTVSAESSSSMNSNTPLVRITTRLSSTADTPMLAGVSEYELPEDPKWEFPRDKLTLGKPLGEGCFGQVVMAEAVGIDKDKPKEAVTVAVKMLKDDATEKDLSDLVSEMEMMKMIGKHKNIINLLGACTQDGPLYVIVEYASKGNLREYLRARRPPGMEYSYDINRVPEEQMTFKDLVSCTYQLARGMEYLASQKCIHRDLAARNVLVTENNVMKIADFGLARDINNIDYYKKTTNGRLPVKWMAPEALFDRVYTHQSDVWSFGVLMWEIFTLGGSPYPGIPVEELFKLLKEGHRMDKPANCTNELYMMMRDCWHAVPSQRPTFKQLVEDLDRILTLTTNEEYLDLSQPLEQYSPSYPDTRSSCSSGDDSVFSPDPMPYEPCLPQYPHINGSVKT
T1 sequence (P21802 22-821): as above

Compound | IC50 (human wild type FGFR2) | IC50 (FGFR2) | fold more selective for FGFR2 than for FGFR1, cell-based assays (human wild type FGFR1)
1-(3-Chloro-5- fluoro-2-pyridyl)- 2-[3-fluoro-6-[5- methyl-1-[1- (oxetan-3-yl)-4- piperidyl]triazol-4- yl]pyrazolo[1,5- a]pyridin-4- yl]oxy-ethanol, Isomer 2 [Example 87] | < 0.03 µM | – | –
CCC(Oc1cc(-c2nnn(C3CCN(C4COC4)CC3)c2C)cn2ncc(C#N)c12)c1csc(C)n1 (single isomer, unassigned; isomer 1) [Example 25, 6-[5-Methyl-1-[1-(oxetan-3-yl)-4-piperidyl]triazol-4-yl]-4-[1-(2-methylthiazol-4-yl)propoxy]pyrazolo [1,5-a]pyridine-3-carbonitrile, Isomer 1] | – | < 0.2 µM | at least 5 fold
Cc1c(-c2cc(OCC(c3ncc(F)cc3F)N3CC(F)(F)C3)c3c(C#N)cnn3c2)nnn1C1CCN(C2COC2)CC1 (single isomer, unassigned; isomer 1) [Example 29, 4-[2-(3,3-Difluoroazetidin-1-yl)-2-(3,5-difluoro-2-pyridyl)ethoxy]-6-[5-methyl-1-[1-(oxetan-3-yl)-4-piperidyl]triazol-4-yl]pyrazolo [1,5-a]pyridine-3-carbonitrile, Isomer 1] | – | < 0.2 µM | at least 5 fold
Cc1c(-c2cc(NC(C)c3cncc(C(F)(F)F)c3)c3c(C#N)cnn3c2)nnn1C1CCN(C2COC2)CC1 (single isomer, unassigned; isomer 1) [Example 68, 6-[5-Methyl-1-[1-(oxetan-3-yl)-4-piperidyl]triazol-4-yl]-4-[1-[5-(trifluoromethyl)-3-pyridyl]ethylamino]pyrazolo[1,5-a]pyridine-3-carbonitrile, Isomer 1] | – | < 0.2 µM | at least 5 fold
Cc1c(-c2cc(OCC(O)c3ccc(F)cn3)c3c(-c4cnn(C)c4)cnn3c2)nnn1C1CCN(C2COC2)CC1 (single isomer, unassigned; isomer 1) [Example 98, 1-(5-Fluoro-2-pyridyl)-2-[6-[5-methyl-1-[1-(oxetan-3-yl)-4-piperidyl]triazol-4-yl]-3-(1-methylpyrazol-4-yl)pyrazolo[1,5-a]pyridin-4-yl]oxy-ethanol, Isomer 1] | – | < 0.2 µM | at least 5 fold
Cc1c(-c2cc(OC(C)c3cncc(C(F)(F)F)c3)c3c(C#N)cnn3c2)nnn1C1CN(C2COC2)C1 (single isomer, unassigned; isomer 2) [Example 6, 6-[5-Methyl-1-[1-(oxetan-3-yl)azetidin-3-yl]triazol-4-yl]-4-[1-[5-(trifluoromethyl)-3-pyridyl]ethoxy]pyrazolo [1,5-a]pyridine-3-carbonitrile, Isomer 2] | – | < 0.2 µM | at least 5 fold
Cc1c(-c2cc(OCC3(c4ccc(F)cn4)CCO3)c3c(C#N)cnn3c2)nnn1C1CCN(C2COC2)CC1 (single isomer, unassigned; isomer 2) [Example 15, 4-[[2-(5-Fluoro-2-pyridyl)oxetan-2-yl]methoxy]-6-[5-methyl-1-[1-(oxetan-3-yl)-4-piperidyl]triazol-4-yl]pyrazolo[1,5-a]pyridine-3-carbonitrile, Isomer 2] | < 0.06 µM | – | –
Cc1c(-c2cc(OC(C)c3cncc4c3cnn4C)c3c(C#N)cnn3c2)nnn1C1CCN(C2COC2)CC1 (single isomer, unassigned; isomer 2) [Example 36, 6-[5-Methyl-1-[1-(oxetan-3-yl)-4-piperidyl]triazol-4-yl]-4-[1-(1-methyl-pyrazolo[3,4-c]pyridin-4-yl)ethoxy] pyrazolo[1,5-a]pyridine-3-carbonitrile, Isomer 2] | – | < 0.2 µM | at least 5 fold
Cc1c(-c2cc(OC(C)c3cncc4c3ccn4C)c3c(C#N)cnn3c2)nnn1C1CCN(C2COC2)CC1 (single isomer, unassigned; isomer 2) [Example 37, 6-[5-Methyl-1-[1-(oxetan-3-yl)-4-piperidyl]triazol-4-yl]-4-[1-(1-methylpyrrolo[2,3-c]pyridin-4-yl)ethoxy]pyrazolo [1,5-a]pyridine-3-carbonitrile, Isomer 2] | – | < 0.2 µM | at least 5 fold
Cc1c(-c2cc(OC(C)c3cc(C4CC4)c(F)cn3)c3c(C#N)cnn3c2)nnn1C1CCN(C2COC2)CC1 (single isomer, unassigned; isomer 2) [Example 39, 4-[1-(4-Cyclopropyl-5-fluoro-2-pyridyl)ethoxy]-6-[5-methyl-1-[1-(oxetan-3-yl)-4-piperidyl]triazol-4-yl]pyrazolo [1,5-a]pyridine-3-carbonitrile, Isomer 2] | – | < 0.2 µM | at least 5 fold
Cc1c(-c2cc(OC(C)c3cncc(C(F)(F)F)c3)c3c(C#N)cnn3c2)nnn1C1CCCN(C2COC2)CC1 (single isomer, unassigned; isomer 2) [Example 70, 6-[5-Methyl-1-[1-(oxetan-3-yl)azepan-4-yl]triazol-4-yl]-4-[1-[5-(trifluoromethyl)-3-pyridyl]ethoxy] pyrazolo[1,5-a]pyridine-3-carbonitrile, Isomer 2] | – | < 0.2 µM | at least 5 fold
Cc1c(-c2cc(OCC(O)c3ccc(F)cn3)c3c(Cl)cnn3c2)nnn1C1CN(C2COC2)C1 (single isomer, unassigned; isomer 2) [Example 86, 2-[3-Chloro-6-[5-methyl-1-[1-(oxetan-3-yl)azetidin-3-yl]triazol-4-yl]pyrazolo[1,5-a]pyridin-4-yl]oxy-1-(5-fluoro-2-pyridyl)ethanol, Isomer 2] | – | < 0.2 µM | at least 5 fold
Cc1c(-c2cc(OCC(=O)c3ccc(F)cn3)c3c(C#N)cnn3c2)nnn1C1CCN(C2COC2)CC1 [Example 12, 4-[2-(5-Fluoro-2-pyridyl)-2-oxo-ethoxy]-6-[5-methyl-1-[1-(oxetan-3-yl)-4-piperidyl]triazol-4-yl]pyrazolo[1,5-a]pyridine-3-carbonitrile] | – | < 0.2 µM | at least 5 fold
Cc1c(-c2cc(OCC3(c4ccc(F)cn4)CC(F)(F)C3)c3c(C#N)cnn3c2)nnn1C1CCN(C2COC2)CC1 [Example 17, 4-[[3,3-Difluoro-1-(5-fluoro-2-pyridyl)cyclobutyl]methoxy]-6-[5-methyl-1-[1-(oxetan-3-yl)-4-piperidyl]triazol-4-yl]pyrazolo[1,5-a]pyridine-3-carbonitrile] | – | < 0.2 µM | at least 5 fold
Cc1nn(C2CC3(CCN(C4COC4)CC3)C2)cc1-c1cc(O[C@H](C)c2ccccn2)c2c(C#N)cnn2c1 [Example 94, 6-[3-Methyl-1-[7-(oxetan-3-yl)-7-azaspiro[3.5]nonan-2-yl]pyrazol-4-yl]-4-[(1R)-1-(2-pyridyl)ethoxy]pyrazolo[1,5-a]pyridine-3-carbonitrile] | – | < 0.2 µM | at least 5 fold
